Drawing on PubChem BioAssay AID1645887 (National Center for Advancing Translational Sciences (NCATS), 2021), this text covers activation for 84 compounds.

Values joined by “and” are separate entries in the source; they are usually repeats but may differ in a detail not shown here. Identical values can stand only once. Hit rate of the full screen: of about 16,000 compounds, about 40 (0.2%) were called active. Inconclusive results (about 1%) are left out. Calls come from the whole dose curve; as a rule, active = well fitted activation curve with a large enough effect; inconclusive = small, poorly fitted or top-dose-only effect, or another doubt; inactive = no such curve, though single readings can be large or run the other way. The list shows a part of the results.
% is set by controls: 0 for no effect and ±100 for the full control effect.

Chain of UniProt Q8WZA2 (Q8WZA2 whole entry, looked up): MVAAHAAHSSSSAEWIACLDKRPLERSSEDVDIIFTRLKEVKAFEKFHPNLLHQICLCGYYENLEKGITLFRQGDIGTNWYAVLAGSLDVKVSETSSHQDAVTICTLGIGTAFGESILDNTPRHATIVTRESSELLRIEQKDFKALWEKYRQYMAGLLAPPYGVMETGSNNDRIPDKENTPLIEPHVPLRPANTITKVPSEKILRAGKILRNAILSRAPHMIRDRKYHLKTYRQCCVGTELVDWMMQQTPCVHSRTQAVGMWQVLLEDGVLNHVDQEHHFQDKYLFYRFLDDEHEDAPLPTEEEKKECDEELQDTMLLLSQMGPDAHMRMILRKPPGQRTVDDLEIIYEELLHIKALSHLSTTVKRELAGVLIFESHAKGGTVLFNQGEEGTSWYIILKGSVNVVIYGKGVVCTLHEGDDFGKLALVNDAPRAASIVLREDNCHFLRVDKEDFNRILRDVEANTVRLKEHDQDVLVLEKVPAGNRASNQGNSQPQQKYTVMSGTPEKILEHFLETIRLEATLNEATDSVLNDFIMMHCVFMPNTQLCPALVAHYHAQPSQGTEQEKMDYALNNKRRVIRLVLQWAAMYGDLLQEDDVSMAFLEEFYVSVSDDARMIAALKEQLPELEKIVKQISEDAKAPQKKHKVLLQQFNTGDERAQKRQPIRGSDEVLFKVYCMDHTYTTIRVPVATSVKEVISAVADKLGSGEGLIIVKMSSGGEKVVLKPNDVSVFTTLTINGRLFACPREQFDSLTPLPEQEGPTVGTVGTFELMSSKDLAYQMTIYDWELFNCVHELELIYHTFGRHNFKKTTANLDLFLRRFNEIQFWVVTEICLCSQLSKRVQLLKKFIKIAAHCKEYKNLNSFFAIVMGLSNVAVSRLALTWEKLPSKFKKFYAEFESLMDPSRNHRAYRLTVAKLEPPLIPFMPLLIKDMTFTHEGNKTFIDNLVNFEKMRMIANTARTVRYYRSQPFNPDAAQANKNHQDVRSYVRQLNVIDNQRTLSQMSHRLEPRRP

The test addresses Rap guanine nucleotide exchange factor 4 (Homo sapiens) (UniProt Q8WZA2). The test can be described thus: Validation qHTS for agonist of cAMP-regulated guanine nucleotide exchange factor 4 (EPAC2).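 Note: exchange makes BODIPY-GDP fluorescence drop when released from Rap1B; series mostly up to about 150 µM.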 The settings on record: EPAC2 Rap1B BODIPY-GDP exchange, fluorescence; activation: stronger effect = higher value. In a few lines:
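Fluorescent exchange assay: 100 nM EPAC2 with 250 nM RAP1B-BODIPY-GDP and 50 uM GDP; compound added, 5 min at room temperature, then read (ex 480/em 540 nm) every 5 min for 30 min. Normalized to 6.5 mM cAMP agonist control.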
With `N#Cc1ccc(CN2CCCC3(CCN(C(=O)c4csnn4)CC3)C2)cc1`, the activation was inactive: -2.24%.
On to `Cc1ccnc(NS(=O)(=O)c2ccc(N)cc2)n1`, for which the activation was inactive: -11.6% and inactive: 0.242%.
With `O=C(Nc1ccc(Cl)cc1Cl)[C@@H]1CC=C[C@@H]2CCN(Cc3ccccc3)C(=O)[C@@H]21`, the activation is inactive: -16.4%.
Then `NC(=O)OCC(COC(N)=O)c1ccccc1`, with inactive: 1.35% and inactive: -10.3% and inactive: -26.4%; and `Cc1nc2cnc(Nc3ccccc3)nc2n(Cc2cccs2)c1=O`, with inactive: -10.8%.
Turning to `COc1ccccc1-c1cc(NCc2cnc(C)cn2)ncn1`, the activation was inactive: -13%.
As for `c1cc2c3c(c1)CCC[N+]3(C1CCCCC1)CCC2`, the figure is inactive: -4.12%; as for `COC(=O)N[C@H](C(=O)N[C@@H](Cc1ccccc1)[C@@H](O)CN(Cc1ccc(-c2ccccn2)cc1)NC(=O)[C@@H](NC(=O)OC)C(C)(C)C)C(C)(C)C`, inactive: -6.82%.
As for `CC1(C)CC[C@]2(C)CC[C@@]3(C)C(=CCC4[C@@]5(C)CCC(O)C(C)(C)C5CC[C@@]43C)C2C1` (some centres undefined), the figure is inactive: -13.2%; as for `O=c1[nH]c(=O)n([C@H]2C[C@@H](O)[C@@H](CO)O2)cc1C=CBr`, inactive: -22.7%; as for `NCCCC(O)(P(=O)(O)O)P(=O)(O)O`, inactive: -11.3% and inactive: -14.6%.
Then `O=C(Nc1ccccc1)N1CCCC2(CCN(C(=O)c3csnn3)CC2)C1`, with inactive: -8.21%; and `O=C(c1ccncc1)N1CCC[C@@]2(CCN(c3ccncc3)C2)C1`, with inactive: -12%; and `Nc1ccc(S(=O)(=O)Nc2cnc3ccccc3n2)cc1`, with inactive: -6.81% and inactive: -17.8%.
For `Cc1ccccc1CN1CCc2nnc(C(C)NC(=O)C3CCN(C)CC3)n2CC1` (centres undefined), the activation is inactive: -4.64%.
Then `COCC(=O)N1CCC2(CCCN(c3ccccn3)C2)CC1`, with inactive: 3.89%; and `COc1cc(CN2CCC3(CC2)CC3C(=O)Nc2ccc3sc(C)nc3c2)ccc1F` (centres undefined), with inactive: -6.82%.
As for `OC[C@H]1O[C@@H](n2cnc3c(NCc4ccccc4)ncnc32)[C@H](O)[C@@H]1O`, the figure is inactive: 2.58%.
As for `Oc1ccc(CCNCCCCCCNCCc2ccccc2)cc1O`, the figure is inactive: -0.655%; as for `CC1=CC(=C(c2ccc(N)cc2)c2ccc(N)cc2)C=CC1=N`, inactive: 11%; as for `COc1ccc(SCCN2CC[C@@H](C(C)(C)C)CCC2=O)cc1`, inactive: -27%.
As to `C=CCN(c1ccc(Br)cc1C(=O)OC)S(C)(=O)=O`, the activation was inactive: -22.7%.
Consider `COc1ccc(CN2CCC(=O)N([C@H](CO)Cc3ccccc3)CC2)cc1OC`, for which the activation is inactive: -15.2%.
As for `CC(C)c1c(C(=O)NCC(C)(C)N2CCOCC2)cnn1-c1nccc(-c2ccccc2F)n1`, the figure is inactive: -6.27%.
As for `CCCCCCCCCC[Si](C)(C)CCC(=O)NC(Cc1ccc(C)cc1)c1ccccc1` (centres undefined), the figure is inactive: -23.7%; as for `Cc1cccc(CNc2ncncc2-c2ccccc2C(F)(F)F)c1`, inactive: -11.4%.
As for `CN(Cc1ccco1)c1ncnc2ccc(-c3ccc4c(c3)OCO4)cc12`, the figure is inactive: -18.6%.
Take `CN1CCC(Nc2ncc3ncnc(Nc4ccc(F)c(Cl)c4)c3n2)CC1`: the activation was inactive: -26.5%.
With `O=C1C(c2[nH]c3ccccc3c2O)=Nc2ccccc21`, the activation is inactive: -4.29%.
As for `O=c1c(O)c(-c2ccc(O)cc2)oc2ccccc12`, the figure is inactive: -23.6%; as for `Clc1ccccc1-c1ccc2ncnc(N3CCNCC3)c2c1`, inactive: -10.4%.
Then `Cc1noc(C)c1C(=O)N1CCC2(CCCN(Cc3ccc(C#N)cc3)C2)CC1`, with inactive: -0.829%.
As for `CCOC(=O)[C@H](CCc1ccccc1)N[C@@H](C)C(=O)N(CC(=O)O)C1Cc2ccccc2C1`, the figure is inactive: -12%; as for `O=C1O[C@@H]2[C@@H](O)[C@H](O)O[C@@H]2[C@H]1O`, inactive: -2.06%; as for `COc1cc(CN2CCOc3ccc(CN4CCC(O)(c5cccnc5)CC4)cc3C2)ccc1F`, inactive: -3.79%.
As for `CCN(CC)c1ncnc2c1ncn2[C@@H]1O[C@@H](COP(=O)(O)OP(=O)(O)C(Br)(Br)P(=O)(O)O)[C@H](O)[C@H]1O`, the activation was inactive: -8.64%.
Turning to `O=C1CCN(Cc2ccccc2)S(=O)(=O)c2ccc(C(F)(F)F)cc21`, the activation was inactive: -32.7%.
Then `COc1ccc(-c2nc3cnc(N4CCOCC4)nc3n(Cc3cccc(OC)c3)c2=O)cc1`, with inactive: 9.88%; and `CN(CCO)C(=O)c1cn(C2CCCN(Cc3ccc4ccccc4c3)C2)nn1` (centres undefined), with inactive: -4.59%.
Then `C[C@H](Cn1cnc2c(N)ncnc21)OCP(=O)(O)O`, with inactive: 2.78%.
As for `CNC(=O)c1c(I)c(C(=O)NCC(=O)Nc2c(I)c(C(=O)O)c(I)c(C(=O)NCCO)c2I)c(I)c(N(C)C(C)=O)c1I`, the figure is inactive: 4.68%.
As to `O=S1(=O)CCOC[C@H](c2ccccc2)N1Cc1ccc(Cl)c(Cl)c1`, the activation is inactive: -10.4%.
As for `CC(CN1CC(=O)NC(=O)C1)N1CC(=O)NC(=O)C1` (centres undefined), the figure is inactive: -2.55%.
As for `CN1CCN(c2ncc3ncc(=O)n(CCc4ccccc4)c3n2)CC1`, the figure is inactive: 2.15%; as for `Cc1ncoc1C(=O)NCc1nc(-c2cccc(NC(=O)c3ccccn3)c2)oc1C`, inactive: -8.16%; as for `O=C(C[C@H]1C(=O)N(CCc2ccccc2)C[C@@H]1Cc1ccccc1)Nc1ccccc1`, inactive: -38%.
As for `COc1c(C(C)C)oc2cc3oc(=O)ccc3cc12`, the figure is inactive: -24.8%; as for `Cc1noc(C)c1-c1nccc(-n2ccnc2)n1`, inactive: -22.3%.
For the compound `c1ccc2c(c1)sc[n+]2CCC1CCCCC1`, the activation is inactive: -22.5%.
In the case of `COc1cc(C(=O)OC2CC[C@]3(C)C4CCC5[C@]6(O)CC(O)[C@]7(O)C(CN8CC(C)CCC8[C@]7(C)O)[C@]6(O)C[C@@]53O[C@]24O)cc(OC)c1OC` (some centres undefined), the activation was inactive: -9.6%.
Then `Cc1cc(O)c(C(C)C)cc1Cl`, with inactive: -11%; and `COc1cc(N(C)C)c(OC)cc1C=O`, with inactive: -9.96%; and `CC(=O)Oc1ccccc1C(=O)Oc1ccccc1C(=O)O`, with inactive: -0.334%.
As for `C[C@H](O)CN(C)C`, the figure is inactive: -9.35%.
Then `O=C(c1cccc(F)c1)N1CCC2(CC1)CN(C(c1ccccc1)c1ccccc1)C2`, with inactive: -0.221%; and `N[C@H](C(=O)O)[C@@H]1CC(Cl)=NO1`, with inactive: 26.5%.
Regarding `Cc1cnc(CNc2nc(-c3ccccc3Cl)nc3ccccc23)cn1`, the activation was inactive: -36%.
In the case of `O=C(O)c1ccncc1`, the activation was inactive: -7.57%.
As for `COc1ccccc1CCC(=O)N1CCOc2c(cc(-c3cnc4ccccc4c3)cc2OC)C1`, the figure is inactive: -2.28%; as for `O=[N+]([O-])O[C@@H]1CO[C@H]2[C@@H]1OC[C@@H]2O`, inactive: 3.66%; as for `O=C(NCCCN1CCCCCC1)C(c1ccccc1)C1CCCCC1` (centres undefined), inactive: 9.09%.
As for `CC1CC2C(C(O)C[C@]3(C)C2CC[C@]3(O)C(=O)CO)[C@]2(C)C=CC(=O)C=C12` (some centres undefined), the figure is inactive: 3.25%.
Then `CCCCC/C=C\C/C=C\CCCCCCCCCC(=O)O`, with inactive: 7.37%; and `O=C1C=CC2=C3c4cc(O)c(O)cc4C[C@@]3(O)COC2=C1`, with inactive: -5.9%.
On to `NC(Cc1ccccc1)C(=O)O` (centres undefined), for which the activation was inactive: -10.8%.
As for `CNC(=O)Oc1ccc2c(c1)[C@@]1(C)CCN(C)C1N2C` (some centres undefined), the figure is inactive: -0.673% and inactive: -1.46% and inactive: 2.98%; as for `COc1ccc2[nH]c(-c3ccccc3)c(CCNC(C)=O)c2c1`, inactive: -31% and inactive: 10%; as for `COc1ccccc1C1CN(CCNC(=O)c2cnsn2)Cc2ccccc2O1` (centres undefined), inactive: 9.77%.
Turning to `CCOC(=O)C1=CC2(CC)CCCN3CCc4c(n1c1ccccc41)C32` (centres undefined), the activation is inactive: -20.1%.
As for `Cc1cc(-c2ccnc(-n3ncc(C(=O)N(C)Cc4nccs4)c3C)n2)c(C)s1`, the activation is inactive: -8.42%.
As for `CC(C)(C)c1ccc(C(=O)CCCN2CCC(OC(c3ccccc3)c3ccccc3)CC2)cc1`, the figure is inactive: -27.8% and inactive: -37.5%.
`COCC(=O)N1CCC2(CCCN(C(=O)Nc3cccc(F)c3)C2)CC1`: the activation is inactive: -5.5%.
Then `CCCCCC(O)c1cccc(OCc2ccc3ccccc3n2)c1` (centres undefined), with inactive: 2.21% and inactive: -54.7%; and `C/C1=C/CC(C)(C)/C=C/C/C(C)=C/CC1`, with inactive: -19.6%.
For the compound `COc1cc(-c2coc3cc(O[C@H]4OC(CO)C(O)C(O)C4O)c(OC)c(O)c3c2=O)cc(O)c1OC` (some centres undefined), the activation is inactive: -1.56%.
Turning to `CC1(C)S[C@@H]2[C@H](N3C(=O)C(c4ccccc4)NC3(C)C)C(=O)N2[C@H]1C(=O)O` (some centres undefined), the activation is inactive: -16.6%.
For `O=c1ccn([C@@H]2O[C@H](CO)[C@@H](O)[C@H]2O)c(=O)[nH]1`, the activation is inactive: -8.02%.
Then `O=c1c(-c2ccccc2)nc2cnc(N3CCOCC3)nc2n1-c1ccccc1`, with inactive: -5.23%.
As for `COc1ccccc1CN1CCCC2(CCN(S(=O)(=O)c3ccccc3)CC2)C1`, the figure is inactive: -25.4%; as for `COc1cc2oc(-c3ccccc3)cc(=O)c2cc1OC`, inactive: -14.1%.
As for `CO/N=C(/C(=O)N[C@@H]1C(=O)N2C(C(=O)[O-])=C(C[n+]3ccn4ncccc43)CS[C@H]12)c1nsc(N)n1`, the figure is inactive: -10.9% and inactive: -25.6%.
In the case of `CN(C)[C@@H]1C(=O)C(C(=O)NCN2CCCC2)=C(O)[C@@]2(O)C(=O)C3=C(O)c4c(O)cccc4[C@@](C)(O)C3C[C@@H]12` (some centres undefined), the activation is inactive: -15.9% and inactive: -25.9%.
Take `COc1ccc(NC(=O)N2CCCC3(CCN(S(C)(=O)=O)CC3)C2)cc1`: the activation was inactive: -5.14%.
Turning to `CN(C)C(=O)c1ccc(-c2cncnc2N(C)Cc2ccco2)cc1`, the activation is inactive: 3.93%.
